Screen size: about 310,000 compounds; about 2,200 (0.71%) showed an effect of 50% or more. Effects have a minus sign here. Some of the results follow.
What follows are compounds tested against human ether-à-go-go-related gene (hERG) potassium channel (human, UniProt Q12809) (assay: primary screen, population patch clamp on CHO cells stably expressing hERG).
Sequence of human ether-à-go-go-related gene (hERG) potassium channel (Q12809 whole entry, looked up): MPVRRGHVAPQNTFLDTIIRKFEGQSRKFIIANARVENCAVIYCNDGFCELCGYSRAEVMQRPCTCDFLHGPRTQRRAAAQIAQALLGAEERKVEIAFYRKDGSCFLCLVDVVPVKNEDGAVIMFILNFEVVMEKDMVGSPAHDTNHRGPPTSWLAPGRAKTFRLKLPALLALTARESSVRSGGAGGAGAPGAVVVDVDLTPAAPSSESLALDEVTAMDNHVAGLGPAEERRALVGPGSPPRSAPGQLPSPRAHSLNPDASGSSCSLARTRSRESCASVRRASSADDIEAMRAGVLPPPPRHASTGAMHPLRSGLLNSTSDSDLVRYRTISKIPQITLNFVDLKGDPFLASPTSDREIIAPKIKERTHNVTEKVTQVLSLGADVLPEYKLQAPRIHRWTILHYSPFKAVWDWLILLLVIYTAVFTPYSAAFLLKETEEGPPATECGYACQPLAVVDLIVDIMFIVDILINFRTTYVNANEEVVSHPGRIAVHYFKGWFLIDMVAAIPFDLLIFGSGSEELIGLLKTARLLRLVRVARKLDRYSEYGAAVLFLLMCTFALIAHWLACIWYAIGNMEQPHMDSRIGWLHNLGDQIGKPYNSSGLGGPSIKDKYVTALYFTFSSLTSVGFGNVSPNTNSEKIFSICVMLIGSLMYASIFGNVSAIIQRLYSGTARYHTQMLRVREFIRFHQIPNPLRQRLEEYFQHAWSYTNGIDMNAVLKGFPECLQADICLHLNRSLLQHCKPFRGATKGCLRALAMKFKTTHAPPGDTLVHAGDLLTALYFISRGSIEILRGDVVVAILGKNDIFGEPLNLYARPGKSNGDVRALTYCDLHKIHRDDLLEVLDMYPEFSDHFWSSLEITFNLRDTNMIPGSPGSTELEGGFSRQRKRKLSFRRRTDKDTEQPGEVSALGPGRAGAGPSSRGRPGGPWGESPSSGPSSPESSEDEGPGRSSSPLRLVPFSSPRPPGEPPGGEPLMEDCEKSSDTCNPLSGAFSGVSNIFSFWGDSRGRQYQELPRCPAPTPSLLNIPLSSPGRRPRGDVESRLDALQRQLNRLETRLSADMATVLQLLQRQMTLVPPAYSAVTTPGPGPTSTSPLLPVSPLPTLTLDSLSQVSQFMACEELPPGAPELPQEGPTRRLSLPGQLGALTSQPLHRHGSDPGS

Row | SMILES | hERG current change (%, negative = inhibition) at 1uM
1 | Cc1cccc(C(=O)NCCNC(=O)c2cccc(C)c2)c1 | 3.44%
2 | COCc1cccc(C2=CC(=O)C[C@H](c3ccc(F)cc3)C2)c1 | 7.01%
3 | CCC(C)NC(=O)C1CCC(CNS(=O)(=O)c2ccc3c(c2)CC(C)N3C(C)=O)CC1 (centres unmarked) | 10.8%
4 | O=C(Nc1ccccc1)c1ccc(N2CCN(c3ccccn3)CC2)c(S(=O)(=O)N2CCOCC2)c1 | 9.42%
5 | CCC(=O)N1CCC2(CC1)Oc1ccc(F)cc1C(=O)C21CC(c2cccnc2)=NO1 (centres unmarked) | 0.144%
6 | CCCCN(C)C(=O)Cn1nc(-c2ccc(Cl)cc2)ccc1=O | 1.01%
7 | COc1ccc(NC2CCCN(C(=O)c3ccc4[nH]c(C)c(C)c4c3)C2)cc1OC (centres unmarked) | 9.32%
8 | CN1/C(=C\C(=O)COC(=O)C2COc3ccccc3O2)C(C)(C)c2ccccc21 (centres unmarked) | 9.71%
9 | CC(C)c1ccc(O)c(NC(=O)c2cccnc2)c1 | 5.07%
10 | CCOC(=O)Nc1cccc2ccccc12 | 12.3%
11 | CCN(CC(=O)Nc1ccc(NC(C)=O)cc1)C(=O)c1ccc(=O)n(C)n1 | 10.1%
12 | COc1ccc(/C=[N+](\[O-])C2N(c3ccccc3)C(=S)SC2(C)C)cc1OC (centres unmarked) | 8.06%
13 | Cc1ccc(N2N=C(C(=O)O)CCC2=O)cc1Cl | -19.4%
14 | Cc1ccc(S(=O)(=O)N2CCOCC2)cc1NC(=O)COC(=O)c1n[nH]c(=O)c2ccccc12 | 14.4%
15 | COc1ccc2[nH]c(C)c(CCNCc3cc(OC)c(OC)c(OC)c3)c2c1 | 14.6%
16 | O=C(COC(=O)c1ccc2c(c1)OCCO2)NCc1ccccc1 | 13.9%
17 | CN(C)S(=O)(=O)c1cccc(C(=O)OCC(=O)N2c3ccccc3NC(=O)C2(C)C)c1 | 7.91%
18 | CC(C)(C)NC(=O)COC(=O)c1ccccc1Oc1ccccc1 | -0.247%
19 | CCOC(=O)[C@H]1[C@H]2COc3ccc(OC)cc3[C@@H]2N2C(=O)c3cc(C)ccc3NC(=O)[C@@]12C | 8.82%
20 | CC(=O)c1cccc(N(C(=O)CNC(=O)c2ccco2)C(C(=O)NC2CCCC2)c2ccc(C)o2)c1 (centres unmarked) | 17.3%
21 | CCOc1ccc(-c2c(=O)n(OCc3nc4ccccc4[nH]3)c3ccccc3[n+]2[O-])cc1 | 11.5%
22 | CCCc1cc(=O)oc2cc(OCc3ccc(C(=O)O)cc3)ccc12 | 21.4%

Row | SMILES | hERG current change (%, negative = inhibition) at 1uM
23 | Cn1cnnc1SCC(=O)Nc1cc(C(F)(F)F)ccc1N1CCOCC1 | 9.51%
24 | Cc1nn(Cc2ccc(Cl)cc2)c(C)c1NC(=O)c1cc(-c2ccco2)on1 | 9.25%
25 | Cc1ccc(N(Cc2ccco2)C(=O)c2cccc(S(=O)(=O)N(C)C)c2)cc1 | -0.391%
26 | O=C(NCCc1ccc(Cl)cc1)C1CCCN1C(=O)Nc1ccccc1 (centres unmarked) | 8.89%
27 | COc1ccc(OC)c2c1sc(=NC(=O)C1CCCCC1)n2C | -1.81%
28 | O=C(N/N=C1\CCCc2ccccc21)c1ccccc1[N+](=O)[O-] | 1.68%
29 | O=C1c2cc3ccccc3c(-c3ccccc3)c2C(=O)N1c1ccccn1 | 11.3%
30 | O=C(O)c1ccc2c(c1)C(=O)N(c1ccc([N+](=O)[O-])cn1)C2=O | 13.5%
31 | COc1ccccc1CNC(=O)C(NC(=O)c1ccccc1C)C(C)C (centres unmarked) | 11.6%
32 | O=C(Cn1c(=O)oc2cc(S(=O)(=O)N3CCOCC3)ccc21)N1CCc2ccccc2C1 | 4.41%
33 | COc1cc(C(=O)OC(C)C(=O)NC(=O)NC2CCCCC2)ccc1OC(F)F (centres unmarked) | -1.31%
34 | COc1ccc2nc3oc(C(=O)N4CCN(c5cccc(Cl)c5)CC4)cc3cc2c1 | 0.552%
35 | CC(=O)NCC(=O)NC(C(=O)Nc1ccc2c(c1)OCCO2)c1ccc(C)cc1 (centres unmarked) | 11.7%
36 | COc1ccc(N2C(=O)CC(c3ccc([N+](=O)[O-])cc3)C2=O)cc1 (centres unmarked) | 12.2%
37 | Cc1nc(-c2ccc(C(=O)N3CCCC3)cc2)cs1 | 9.11%
38 | COc1ccc(NC(=O)CN(Cc2ccccc2)Cc2ccccc2)cc1S(N)(=O)=O | 8.16%
39 | Cc1cc(=O)oc2cc(OCC(=O)NCCCN3CCCC3=O)ccc12 | 45.4%
40 | COCCC(=O)N1CCC(Oc2ccc(C(=O)NCc3cc(C)n(C)n3)cc2)CC1 | 15.7%
41 | COc1ccc(CCN2CC(C(=O)OCC(=O)N(C)Cc3ccccc3)CC2=O)cc1OC (centres unmarked) | 3.84%
42 | Nc1nnc(SCC(=O)Nc2cccc(S(=O)(=O)N3CCOCC3)c2)s1 | 21%
43 | O=S(=O)(c1ccccc1)N1CCCC1c1cccs1 (centres unmarked) | 6.65%
44 | CCn1nc(NC(=O)Cc2ccc(OC)cc2)c2cc3cc(C)ccc3nc21 | 6.43%

Row | SMILES | hERG current change (%, negative = inhibition) at 1uM
45 | COCCn1c(CN(C)Cc2ccccc2)nc2c1c(=O)n(C)c(=O)n2C | 6.45%
46 | O=C(Nc1ccc(F)cc1)c1ccc(CN2CCc3ccccc3C2)cc1 | 13%
47 | COc1cc(OC)c(OC)cc1CN1CCN(c2ccccc2OC)CC1 | -0.441%
48 | O=C(C(=O)N1CCOCC1)c1cn(CC(=O)N2CCCCC2)c2ccccc12 | 6.84%
49 | CC(C)(C)OC(=O)N[C@H](C(=O)OC(C)(C)C)c1ccccc1 | 20.1%
50 | O=C(NCc1cccnc1)c1cccc(NS(=O)(=O)c2ccc(Br)cc2)c1 | -1.43%
51 | CC(=O)c1ccc(N(CC(=O)NCCc2ccccc2)C(=O)c2csnn2)cc1 | -14.6%
52 | O=C(CSc1nc2ccccc2s1)CSc1nc2ccccc2s1 | 9.56%
53 | O=C(CN1C(=O)S/C(=C\c2ccccc2F)C1=O)NC1C=CS(=O)(=O)C1 (centres unmarked) | 5.43%
54 | CSCC[C@H](NC(=O)CCn1nnc2ccccc2c1=O)C(=O)O | 8.48%
55 | CCOC(=O)C1CCC(CN(Cc2ccccc2)S(=O)(=O)c2ccc([N+](=O)[O-])cc2)CC1 (centres unmarked) | 11.2%
56 | CC(C)OCCCNC(=O)c1ccccc1NC(=O)C1=CSCCO1 | 20.5%
57 | Cc1c(-c2ccccc2)nc2ccccc2c1C(=O)NCc1cccs1 | 2.01%
58 | COCCNC(=O)COc1ccc(Br)cc1Cl | 12.9%
59 | CC(=O)Nc1ccc(S(=O)(=O)N2CCN(C(=O)N3CCCC3)CC2)cc1 | 19.1%
60 | COC(=O)C1=CN(C)C=C(C(=O)OC)C1c1ccc(O)c(OC)c1 | 1.97%
61 | O=C(CN1CCN(Cc2ccccc2Cl)CC1)N/N=C/C=C/c1ccco1 | -23%
62 | O=C(c1cc(C(=O)N2CCOCC2)c2nc3ccccc3n2c1)c1cc(Cl)cc(Cl)c1O | 4.86%
63 | O=C(O)C(=O)O.O=[N+]([O-])c1ccccc1S(=O)(=O)N1CCN(CC2CC=CCC2)CC1 (centres unmarked) | -6.7%
64 | CN(CCc1ccccc1)C1CCCN(S(=O)(=O)c2cccc(F)c2)C1 (centres unmarked) | -2.76%
65 | CC(=O)c1ccc(NC(=O)Cc2cccs2)cc1 | 12.8%
66 | CC(C)C(=O)Nc1csc(C(F)(F)F)c1-c1ccccc1 | 1.6%

Row | SMILES | hERG current change (%, negative = inhibition) at 1uM
67 | COc1ccc(NC(=O)Cc2nnc(SCC(=O)c3ccccc3)n2C)cc1 | 8.78%
68 | COc1ccccc1CNc1ncnc2c1nnn2Cc1ccccc1 | 5.89%
69 | COc1ccc(OCC(=O)N2c3ccc(C)cc3C3CN(C)CCC32)cc1 (centres unmarked) | 10.9%
70 | O=C(O)C1CC=CCC1C(=O)NC1CCCCC1 (centres unmarked) | 13%
71 | CCS(=O)(=O)NCCc1csc(-c2ccc(OC)c(OC)c2)n1 | 11.2%
72 | Cc1onc(-c2ccccc2Cl)c1C(=O)NCCN1Cc2ccccc2C1=O | 6.68%
73 | CCC1(c2ccc(F)cc2)NC(=O)N(CC(=O)Nc2cc(C)on2)C1=O (centres unmarked) | 11.5%
74 | Cc1cc(C)c2c(=O)n(CC(=O)NCCCN3CCOCC3)sc2n1 | 17.3%
75 | CCOC1OC2C(CO)OC(n3cnc4c(N)ncnc43)C2O1 (centres unmarked) | 13.1%
76 | COc1ccc(C(=O)Cn2nnc(-c3ccccc3-n3cnnn3)n2)cc1 | 8.34%
77 | CCCOc1ccc(C(=O)C(CN2CCCC2)c2ccccc2)cc1.Cl (centres unmarked) | -13.8%
78 | COc1ccc(Br)cc1CNC(=O)C1CCN(C(=O)N(C)C)CC1 | 6.84%
79 | CC(C)(C)c1ccc(C(=O)NCC(=O)OCC(=O)N2CCCC2)cc1 | 8.66%
80 | NC(=O)c1ncc(C(F)(F)F)cc1Oc1cccnc1 | 18.6%
81 | O=C(N/N=C/c1ccoc1)c1ccc(Br)cc1 | 9.96%
82 | CCCCc1c(O)c2ccccc2n(CCCC)c1=O | 8.13%
83 | COc1ccc(C2CCCN2C(=S)Nc2ccc(C)c(C)c2)cc1OC (centres unmarked) | 4.73%
84 | CCC(=O)c1cn(CC(=O)Nc2ccccc2)c2ccccc12 | 16.3%
85 | Cc1cccc(-c2noc(CCCC(=O)NC3CCCC3)n2)c1 | 13%
86 | CCOC(=O)CNc1c(-c2ccc(F)cc2)nc2cnccn12 | -2.85%

From paper PMC4336329 (PLoS ONE, 2015)
